Experimental data from patent publication US20190218277A1 (Chugai, published 2019).

Experiments:
human FcγRIa = molecular target: T1, human FcγRIa (human, UniProt P12314 16-292); experiment: SPR (Biacore T200, pH 7.4, 25 °C): His-tagged FcγR captured by anti-His antibody; antibody injected at 100 nM alone (Ab alone) or as 1:1 complex with trimeric CD154 (CD154 IC); binding level / capture level [A]
T1 construct: also called human FcγR1a

human FcγRIIIa (158F) = molecular target: T2, human FcγRIIIa (158F) (human, UniProt P08637 fragment); experiment: SPR (Biacore T200, pH 7.4, 25 °C): His-tagged FcγR captured by anti-His antibody; antibody injected at 100 nM alone (Ab alone) or as 1:1 complex with trimeric CD154 (CD154 IC); binding level / capture level [E]
Chain of human FcγRIIIa (158F) (P08637 other isoform, or with tags, fused parts or gaps limits assumed): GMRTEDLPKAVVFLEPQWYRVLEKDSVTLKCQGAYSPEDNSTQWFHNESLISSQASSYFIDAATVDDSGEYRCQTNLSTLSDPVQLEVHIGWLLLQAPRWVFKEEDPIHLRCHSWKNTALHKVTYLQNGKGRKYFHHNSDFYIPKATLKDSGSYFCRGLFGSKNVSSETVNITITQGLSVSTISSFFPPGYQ
T2 construct: also called human FcγR3a allelic variant 158F

human FcγRIIIa (158V) = molecular target: T3, human FcγRIIIa (158V) (human, UniProt P08637 fragment); experiment: SPR (Biacore T200, pH 7.4, 25 °C): His-tagged FcγR captured by anti-His antibody; antibody injected at 100 nM alone (Ab alone) or as 1:1 complex with trimeric CD154 (CD154 IC); binding level / capture level [F]
Chain of human FcγRIIIa (158V) (P08637 other isoform, or with tags, fused parts or gaps limits assumed): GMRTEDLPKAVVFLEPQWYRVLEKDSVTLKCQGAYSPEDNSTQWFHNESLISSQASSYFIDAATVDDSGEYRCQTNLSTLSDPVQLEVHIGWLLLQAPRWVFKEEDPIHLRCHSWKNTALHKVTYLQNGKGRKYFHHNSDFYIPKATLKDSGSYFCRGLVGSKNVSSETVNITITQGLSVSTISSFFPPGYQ
T3 construct: also called human FcγR3a allelic variant 158V

mouse FcγRIV = molecular target: T4, mouse FcγRIV (mouse, UniProt A0A0B4J1G0 21-203); experiment: SPR (Biacore T200, pH 7.4, 25 °C): His-tagged FcγR captured by anti-His antibody; antibody injected at 100 nM alone (Ab alone) or as 1:1 complex with trimeric CD154 (CD154 IC); binding level / capture level [D]
T4 construct: also called mFcγRIV; mouse FcγR4
T4 sequence: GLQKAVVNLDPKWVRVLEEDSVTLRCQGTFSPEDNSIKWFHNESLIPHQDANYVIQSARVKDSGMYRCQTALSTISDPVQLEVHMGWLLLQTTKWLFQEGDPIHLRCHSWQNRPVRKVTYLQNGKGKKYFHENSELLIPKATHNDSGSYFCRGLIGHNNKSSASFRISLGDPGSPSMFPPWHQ

Measured: binding result

Chain of human FcγRIa (P12314 16-292 limits assumed): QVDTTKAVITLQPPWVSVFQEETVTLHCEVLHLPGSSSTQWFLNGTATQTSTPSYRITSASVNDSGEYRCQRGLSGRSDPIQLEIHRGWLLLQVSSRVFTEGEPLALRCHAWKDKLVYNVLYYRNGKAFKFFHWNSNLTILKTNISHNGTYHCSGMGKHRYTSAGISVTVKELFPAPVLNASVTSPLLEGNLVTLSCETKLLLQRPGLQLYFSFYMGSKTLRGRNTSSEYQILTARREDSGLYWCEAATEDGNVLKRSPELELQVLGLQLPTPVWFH

B1: Anti-CD154 antibody (SLAPH0336a/SLAPL0336a) with Fc variant KAES (SG1109) (antibody, human IgG1, kappa)
heavy: EVQLVESGGGSVKPGGSLKLSCAASGFTFSDHYMYWVRQTPEKRLEWVAIISGGGSYTSYPDSMKGRFTISRDNAKNILHLQMSSLKSEDTAMYYCTRESNGKPGFAYWGQGTLVTVSAASTKGPSVFPLAPSSKSTSGGTAALGCLVKDYFPEPVTVSWNSGALTSGVHTFPAVLQSSGLYSLSSVVTVPSSSLGTQTYICNVNHKPSNTKVDKRV[human IgG1 Fc with K326A E333S (EU numbers) omitted here]
light: DIELTQSPTSLAVSLGQRATISCKASQSVDYAGDSYMNWYQQKPGQPPKLLIYAASNLESGIPARFSASGSGTDFTLNIHPVEEEDAATYYCQQSYEDPWTFGGGTKLEIKRTVAAPSVFIFPPSDEQLKSGTASVVCLLNNFYPREAKVQWKVDNALQSGNSQESVTEQDSKDSTYSLSSTLTLSKADYEKHKVYACEVTHQGLSSPVTKSFNRGEC
binds: all assays above

B2: Anti-CD154 antibody (SLAPH0336a/SLAPL0336a) with Fc variant KWES (SG1085) (antibody, human IgG1, kappa)
heavy: EVQLVESGGGSVKPGGSLKLSCAASGFTFSDHYMYWVRQTPEKRLEWVAIISGGGSYTSYPDSMKGRFTISRDNAKNILHLQMSSLKSEDTAMYYCTRESNGKPGFAYWGQGTLVTVSAASTKGPSVFPLAPSSKSTSGGTAALGCLVKDYFPEPVTVSWNSGALTSGVHTFPAVLQSSGLYSLSSVVTVPSSSLGTQTYICNVNHKPSNTKVDKRV[human IgG1 Fc with K326W E333S (EU numbers) omitted here]
light: B1 light
binds: all assays above
